Source: the RNAGym collection of RNA variant scans (doi:10.7554/elife.90254)
The source gives no read counts; variants with many changes may rest on few reads.

B1: LINE1-mini (parent)
chain: GGCAGAGCUCAACACAGCGUGGCAAAGUGGCUGUGGCUAGACUGCC

Variants of: B1
Assay: self-cleavage, relative activity (ratio to wild type); higher = more cleavage; in vitro, sequencing; the parent is a self-cleaving ribozyme
Work on GGCAGAGCUCAUCACAGCGGGGCGAAGUGGCUGUGGCUAGACUGCG [A12U U20G A24G C46G] yielded a self-cleavage of 0.13.
Variant GGCAGAGCUCAACAAAGCGUGGAAAAGUGCCUGUGGCUAGACUGAU [C15A C23A G30C C45A C46U] has a self-cleavage of 0.
In the case of GACAAAGCACAACGCAACGUGGCAAAGUGGCUGUGGCUGGUCUGCC [G2A G5A U9A A14G G17A A39G A41U], the self-cleavage is reported as 0.6.
Work on UGCAGAGCUCAACACAGGGUGGCAAAGUCGCUGUGGCUAGACUGCC [G1U C18G G29C] yielded a self-cleavage of 0.03.
GGCAGAGAGCAACACAGCGUGGCAAAGUGGCUGUGGGUAGACUGCU [C8A U9G C37G C46U] gave a self-cleavage of 0.06.
Variant GGCAGGGCUGAUCACAGCGUGGUAAAGUGGCUAUGGCUAGACUGCC [A6G C10G A12U C23U G33A] has a self-cleavage of 0.02.
GACAGAGCUCUACACAGCGUGGCAUAGUGGAUGUGACAAGACUGCC [G2A A11U A25U C31A G36A U38A] showed a self-cleavage of 0.02.
For GGCAAAGGUCAACACAGCGGGGCAAAGUGGCUGUGGCUAGACUGCC [G5A C8G U20G], the self-cleavage was 0.
With GGCAGCGCUCAACACAGCAUGGCAAAGUGGCUGUGGCUAUACUGCC [A6C G19A G40U] the self-cleavage was 0.17.
Work on GGGAGGGCUCAACACAGCGUGGCAAAGUGGCUUUGGCUAGACUGCG [C3G A6G G33U C46G] yielded a self-cleavage of 0.01.
GUCAGAGCUCAAUACAGCGUCGCAAAGUGGUUGUGGCUAGACUACC [G2U C13U G21C C31U G44A] showed a self-cleavage of 0.03.
Work on GGCAGAGCACAACACAGCGUGGGAAAGUGGCUGUCGCUAGACUUCC [U9A C23G G35C G44U] yielded a self-cleavage of 0.01.
Work on GGCAGAGCUCAACCCAGCGUGCCAAAGUGACUGUGGCUAGACUGCC [A14C G22C G30A] yielded a self-cleavage of 0.18.
GGCGGAGCUCAACACAGCGUGGCAAAAUGGCUGUGCUUAGACUGCC [A4G G27A G36C C37U] showed a self-cleavage of 0.02.
Work on GGGAGAGCUCAAUACAGCGUGGCAAAGUGGGUGUGGCUAGACUGCC [C3G C13U C31G] yielded a self-cleavage of 0.08.
With GGCAGAGCUCGACACAGCUUGGCAAAGUGGCUUUGGCUCGACUGCC [A11G G19U G33U A39C] the self-cleavage was 0.01.
With GGCAGAGCUCAACACACCGUGGCAAAGUGGCUGUGGCUACCCUGCC [G17C G40C A41C] the self-cleavage was 0.03.
UGCAGAGCUCUACACAGCGUGGCAAAGUGGCUGUGCCUAGACUGCA [G1U A11U G36C C46A] gave a self-cleavage of 0.04.
Variant GUAAGAGCUCAGCACAGCGUGGCAAAGUGGCUGUGGCCCGACUGAC [G2U C3A A12G U38C A39C C45A] has a self-cleavage of 0.02.
With GGCGGGGCUCAACUCAGCGUGGCAAAAUGGCUGUGGCUAGACUGCC [A4G A6G A14U G27A] the self-cleavage was 0.09.
GGCAGAGGGCAACUCAGCAUGCCAUAGUUGCUGAGGCUAGACUGUC [C8G U9G A14U G19A G22C A25U G29U U34A C45U] showed a self-cleavage of 0.
GACAGAGCUAAACACAGCGUGGCAAAGUGGCUGUGGGUAGACUGCC [G2A C10A C37G] showed a self-cleavage of 0.02.
Variant GGCGGAGCGCAACACAGCGAGGCAAAGUGGCUGUGCCUAGACUGUC [A4G U9G U20A G36C C45U] has a self-cleavage of 0.04.
GCCAGAGCACAACACAGCGCGGCAAAGUGGCUGUUGCUAGACUGCC [G2C U9A U20C G35U] showed a self-cleavage of 0.18.
In the case of GGCUGAGCUCAACACAGCGUGGCAAAGUGGCUGUGGGUAUAAUGCC [A4U C37G G40U C42A], the self-cleavage is reported as 0.09.
GGCAGAGCCCAACAAAGUGUGGCAAAGUGCCUGUGGCUAGACUGCC [U9C C15A C18U G30C] gave a self-cleavage of 0.01.
With GGCAGAGCUCAGCUCAGCGUGGUAAAAUGCCUGUGGCUAGACUGCU [A12G A14U C23U G27A G30C C46U] the self-cleavage was 0.01.
GGUGGAGCUCAACACAGCGUGGCAAAGUAGCUGCGGCUAGACUGCC [C3U A4G G29A U34C] gave a self-cleavage of 0.15.
GGCAGAGCUUUACACAGCGUUGCAAAGUGGCUGGUGCUAUACUGCC [C10U A11U G21U U34G G35U G40U] showed a self-cleavage of 0.01.
Variant GGCCGAGCUCAACACGGCGUGGCAAAGUGACUGAGGCUUGACUCCC [A4C A16G G30A U34A A39U G44C] has a self-cleavage of 0.01.
Work on GGCAGAGCUAAACGCAGCGUUGCACAGUGGCUGUUGCUAGACUGCC [C10A A14G G21U A25C G35U] yielded a self-cleavage of 0.02.
GGCAAAGCUCAACACAGCGCGGCAAAGUGGCCGUGGCCAGACUGCC [G5A U20C U32C U38C] showed a self-cleavage of 0.03.
GGCAGAGCUUAACACUGCGUGGCAAAGUGGCUGUGGCAAGUCUGCC [C10U A16U U38A A41U] showed a self-cleavage of 0.
For GGCAGGGCUCAACACAGCGUGGCAAAGUGCCUGUGGCUAGCCUGCC [A6G G30C A41C], the self-cleavage was 0.06.
In the case of GGCAGAGGUCAACACAGCGUGGCAAAGUGACUGUGUCUAGACUGCC [C8G G30A G36U], the self-cleavage is reported as 0.1.
With GGCAGAGCUAAAGACAGCGUGCCAAAGUGGUUGUGGCUAGACUGCA [C10A C13G G22C C31U C46A] the self-cleavage was 0.02.
Variant GGCACAGCUCAACACAGCGUUGCAAAGUGGCCGUGGGUAGAUUUCC [G5C G21U U32C C37G C42U G44U] has a self-cleavage of 0.01.
For GGCAGAGCUCAACAGAGCGUGGCUAAGUAGAUGUGGUUAUACUGCC [C15G A24U G29A C31A C37U G40U], the self-cleavage was 0.01.
UGCAGAGCUCAACACAGCGUGGCAAAGUGGAUGUGGCUAGAUUGCC [G1U C31A C42U] gave a self-cleavage of 0.01.
For GGCAGAGCUCAACACAGCGUGAUAAAGUGGCUAUGGCUAGACUGCC [G22A C23U G33A], the self-cleavage was 0.25.
Variant GGCAGAGCUCAACACAGUGUGACAAACUGGCUGUGGCCAGACUGCC [C18U G22A G27C U38C] has a self-cleavage of 0.04.
GGCAGAGCUCAACACAGCGUUGCAAACCGGCUGUGGCUAGAAUGCC [G21U G27C U28C C42A] gave a self-cleavage of 0.03.
With GGCAUAGCUCAACAUAUCGUGGCAAAGUUGCUGUGGCUAGACUGCC [G5U C15U G17U G29U] the self-cleavage was 0.05.
For GGCAGAGCUCAACACAGCGUGGCAAAUUGGGUGUGGAUCGACUACC [G27U C31G C37A A39C G44A], the self-cleavage was 0.03.
In the case of GGCAAAGCUCAACACAGCGUGGCAAAGUGGCUGUGGCUAUACUACC [G5A G40U G44A], the self-cleavage is reported as 0.04.
Variant GGCAGGGCUCAACACAGCAUGGCAACGUGGCUGUGGCUAGAUUGCC [A6G G19A A26C C42U] has a self-cleavage of 0.02.
GUCUGAGCUCAAGACAGCGUGGCAAGGUGGCUGUGGCUAGACUGCC [G2U A4U C13G A26G] gave a self-cleavage of 0.11.
GCCAGAGCUCAACACAGCGUGGCCAAUUGGCUGUGGCUAGCCUGCC [G2C A24C G27U A41C] gave a self-cleavage of 0.04.
In the case of GGCAGAGCUCAACACAGCUAGGCAAAGUGGCUGUGGCUAGACAUCC [G19U U20A U43A G44U], the self-cleavage is reported as 0.03.
GGCAGAGCUCAAGACAGCGUGGCAGAGUGGCUGUGGCUGGACUGCC [C13G A25G A39G] gave a self-cleavage of 0.03.
In the case of AGCAGAGAUCAACACAGCGUGGCAAAGUGGCUGUGGCUAGACUGUC [G1A C8A C45U], the self-cleavage is reported as 0.63.
Variant GGUAGAGCUCAACACAACGUGGCGAAGUGGCUGUGGCUAGACUGCC [C3U G17A A24G] has a self-cleavage of 0.05.
In the case of GGCAGGGCUCAACACCGCGGGGCAAAGUGGAUGUGGCUAGAAUGCC [A6G A16C U20G C31A C42A], the self-cleavage is reported as 0.
In the case of GGCAGAGUUCAACAUAGCGUGGAAAAGCGGCUGUGCCUAGACUGCG [C8U C15U C23A U28C G36C C46G], the self-cleavage is reported as 0.1.
For GGCAGAGCUAGACACAGAGUGGCAAAGUGGCUGUGGCUAGACUGCC [C10A A11G C18A], the self-cleavage was 0.01.
For GGCGGCAUUCAACACAGCUUGGCGAAGUGGGUGUGGCUAGACUGCC [A4G A6C G7A C8U G19U A24G C31G], the self-cleavage was 0.04.
